Reference: article PMC5636987
Results are given in words; binding and its absence hold for the method and conditions named. In cells and extracts the contact can be indirect. Some results given as binding are weak or reduced against the parent protein; the word gives no strength. For some of these results: Where a sequence is shown, tags or fusion partners need not be part of it.

Key:
[1] = target: T1, GST tagged TAK1 (full-length) (human (from the RefSeq entry)) (UniProt O43318); test: pull-down; GST-tagged and Flag- or HA-tagged proteins co-expressed in COS-7 cells; lysates (20 mM Tris pH 7.4, 150 mM NaCl, 0.5% Triton X-100) incubated with glutathione sepharose beads at 4 °C; washed three times with 250 mM NaCl, 0.5% Triton X-100; Western blot
T1 sequence: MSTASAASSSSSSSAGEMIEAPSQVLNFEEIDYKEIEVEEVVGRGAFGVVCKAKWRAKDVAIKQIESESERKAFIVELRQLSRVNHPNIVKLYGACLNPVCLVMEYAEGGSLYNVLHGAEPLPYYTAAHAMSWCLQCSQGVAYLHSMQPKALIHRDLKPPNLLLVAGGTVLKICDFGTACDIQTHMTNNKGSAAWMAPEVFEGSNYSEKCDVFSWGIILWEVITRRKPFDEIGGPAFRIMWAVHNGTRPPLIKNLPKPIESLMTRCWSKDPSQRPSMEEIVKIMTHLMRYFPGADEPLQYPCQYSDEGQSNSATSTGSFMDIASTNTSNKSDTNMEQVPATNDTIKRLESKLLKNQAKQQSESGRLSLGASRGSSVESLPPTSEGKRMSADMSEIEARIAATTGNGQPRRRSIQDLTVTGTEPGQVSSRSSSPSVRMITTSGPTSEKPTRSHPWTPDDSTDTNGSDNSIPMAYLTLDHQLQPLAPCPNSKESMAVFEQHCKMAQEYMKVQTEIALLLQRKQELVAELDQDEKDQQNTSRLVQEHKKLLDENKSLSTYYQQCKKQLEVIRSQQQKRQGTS

GST-PP2Cα = target: T2, GST-PP2Cα (UniProt P35813); test: as above
T2 sequence: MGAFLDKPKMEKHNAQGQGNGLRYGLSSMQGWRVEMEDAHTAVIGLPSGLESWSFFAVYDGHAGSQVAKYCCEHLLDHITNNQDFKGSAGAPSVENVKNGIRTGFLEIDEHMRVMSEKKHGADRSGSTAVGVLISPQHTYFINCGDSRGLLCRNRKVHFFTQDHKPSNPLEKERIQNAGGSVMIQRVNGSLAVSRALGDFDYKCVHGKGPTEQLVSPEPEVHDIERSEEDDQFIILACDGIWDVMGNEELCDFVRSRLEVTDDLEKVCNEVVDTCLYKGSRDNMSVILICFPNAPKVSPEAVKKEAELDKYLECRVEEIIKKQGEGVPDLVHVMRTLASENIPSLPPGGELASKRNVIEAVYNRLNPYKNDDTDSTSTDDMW

GST-POPX1 = target: T3, GST-POPX1 (UniProt Q8WY54); test: as above
T3 sequence: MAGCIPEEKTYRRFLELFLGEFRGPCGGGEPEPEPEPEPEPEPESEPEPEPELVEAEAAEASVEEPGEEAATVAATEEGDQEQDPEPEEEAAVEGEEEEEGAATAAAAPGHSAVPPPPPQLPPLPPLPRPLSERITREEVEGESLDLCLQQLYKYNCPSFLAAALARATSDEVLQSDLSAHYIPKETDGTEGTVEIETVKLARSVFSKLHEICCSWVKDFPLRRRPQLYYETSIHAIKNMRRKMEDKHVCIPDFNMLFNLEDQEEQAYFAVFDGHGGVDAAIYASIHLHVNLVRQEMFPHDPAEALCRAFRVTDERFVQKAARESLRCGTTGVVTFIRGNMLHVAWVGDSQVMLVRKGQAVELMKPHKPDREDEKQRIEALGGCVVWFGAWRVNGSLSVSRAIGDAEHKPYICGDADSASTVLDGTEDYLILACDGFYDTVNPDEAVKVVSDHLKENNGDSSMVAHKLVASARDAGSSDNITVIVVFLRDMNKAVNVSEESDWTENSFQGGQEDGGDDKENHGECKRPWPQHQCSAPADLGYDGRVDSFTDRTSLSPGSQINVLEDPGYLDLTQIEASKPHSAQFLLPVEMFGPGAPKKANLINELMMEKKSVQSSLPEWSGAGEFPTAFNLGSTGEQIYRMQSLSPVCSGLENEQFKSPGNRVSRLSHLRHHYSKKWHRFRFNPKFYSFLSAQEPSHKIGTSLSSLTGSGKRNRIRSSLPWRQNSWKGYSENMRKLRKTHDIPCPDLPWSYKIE

GST-POPX2 = target: T4, GST-POPX2 (UniProt P49593); test: as above
T4 sequence: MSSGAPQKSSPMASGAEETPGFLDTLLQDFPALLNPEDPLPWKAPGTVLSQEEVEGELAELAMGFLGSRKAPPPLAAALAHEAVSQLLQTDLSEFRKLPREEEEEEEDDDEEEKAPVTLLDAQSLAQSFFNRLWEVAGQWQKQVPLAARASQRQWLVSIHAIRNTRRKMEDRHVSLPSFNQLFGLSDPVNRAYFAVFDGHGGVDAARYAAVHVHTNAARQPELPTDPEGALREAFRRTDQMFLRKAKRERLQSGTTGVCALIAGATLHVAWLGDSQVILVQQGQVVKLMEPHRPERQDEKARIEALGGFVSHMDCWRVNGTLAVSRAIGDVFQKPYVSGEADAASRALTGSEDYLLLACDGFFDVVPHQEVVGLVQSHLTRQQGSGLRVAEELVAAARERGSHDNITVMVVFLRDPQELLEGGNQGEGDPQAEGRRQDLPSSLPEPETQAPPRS

[2] = target: T5, GST-tagged full length PP2Cβ (human) (UniProt O75688); test: as above
T5 sequence: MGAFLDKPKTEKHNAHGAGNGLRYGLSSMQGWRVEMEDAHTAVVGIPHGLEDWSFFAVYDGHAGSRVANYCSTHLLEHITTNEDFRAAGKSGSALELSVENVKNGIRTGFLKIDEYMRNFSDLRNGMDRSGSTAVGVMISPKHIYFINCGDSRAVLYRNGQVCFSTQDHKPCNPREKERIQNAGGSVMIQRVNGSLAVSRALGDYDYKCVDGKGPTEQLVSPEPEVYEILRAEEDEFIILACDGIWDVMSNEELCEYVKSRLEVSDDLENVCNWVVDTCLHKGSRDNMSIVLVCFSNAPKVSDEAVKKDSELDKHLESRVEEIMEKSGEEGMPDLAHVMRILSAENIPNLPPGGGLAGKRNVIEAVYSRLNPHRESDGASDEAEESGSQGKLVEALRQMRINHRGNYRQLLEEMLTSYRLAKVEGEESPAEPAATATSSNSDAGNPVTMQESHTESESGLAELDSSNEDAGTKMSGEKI

[3] = target: T6, POPX2 (endogenous) (human (endogenous in U-2OS)) (UniProt P49593); test: co-IP; endogenous POPX2 isolated with anti-POPX2 mouse monoclonal antibody from U-2OS cells; co-precipitated proteins detected by Western blot; mouse random IgG as control
T6 sequence: T4 sequence

B1: Flag-POPX2 (enzyme, UniProt P49593 1-454)
chain: T4 sequence
[1]
  binding: binds

B2: Flag-TAK1 (enzyme, UniProt O43318-2 1-579)
chain: T1 sequence
GST-PP2Cα
  binding: binds
GST-POPX1
  binding: binds
GST-POPX2
  binding: binds
[2]
  binding: binds

B3: TAK1 (endogenous) (enzyme, UniProt O43318 1-606)
chain: MSTASAASSSSSSSAGEMIEAPSQVLNFEEIDYKEIEVEEVVGRGAFGVVCKAKWRAKDVAIKQIESESERKAFIVELRQLSRVNHPNIVKLYGACLNPVCLVMEYAEGGSLYNVLHGAEPLPYYTAAHAMSWCLQCSQGVAYLHSMQPKALIHRDLKPPNLLLVAGGTVLKICDFGTACDIQTHMTNNKGSAAWMAPEVFEGSNYSEKCDVFSWGIILWEVITRRKPFDEIGGPAFRIMWAVHNGTRPPLIKNLPKPIESLMTRCWSKDPSQRPSMEEIVKIMTHLMRYFPGADEPLQYPCQYSDEGQSNSATSTGSFMDIASTNTSNKSDTNMEQVPATNDTIKRLESKLLKNQAKQQSESGRLSLGASRGSSVESLPPTSEGKRMSADMSEIEARIAATTAYSKPKRGHRKTASFGNILDVPEIVISGNGQPRRRSIQDLTVTGTEPGQVSSRSSSPSVRMITTSGPTSEKPTRSHPWTPDDSTDTNGSDNSIPMAYLTLDHQLQPLAPCPNSKESMAVFEQHCKMAQEYMKVQTEIALLLQRKQELVAELDQDEKDQQNTSRLVQEHKKLLDENKSLSTYYQQCKKQLEVIRSQQQKRQGTS
[3]
  binding: binds

B4: Flag-TAB1 (protein, UniProt Q15750-1 1-504)
chain: MAAQRRSLLQSEQQPSWTDDLPLCHLSGVGSASNRSYSADGKGTESHPPEDSWLKFRSENNCFLYGVFNGYDGNRVTNFVAQRLSAELLLGQLNAEHAEADVRRVLLQAFDVVERSFLESIDDALAEKASLQSQLPEGVPQHQLPPQYQKILERLKTLEREISGGAMAVVAVLLNNKLYVANVGTNRALLCKSTVDGLQVTQLNVDHTTENEDELFRLSQLGLDAGKIKQVGIICGQESTRRIGDYKVKYGYTDIDLLSAAKSKPIIAEPEIHGAQPLDGVTGFLVLMSEGLYKALEAAHGPGQANQEIAAMIDTEFAKQTSLDAVAQAVVDRVKRIHSDTFASGGERARFCPRHEDMTLLVRNFGYPLGEMSQPTPSPAPAAGGRVYPVSVPYSSAQSTSKTSVTLSLVMPSQGQMVNGAHSASTLDEATPTLTNQSPTLTLQSTNTHTQSSSSSSDGGLFRSRPAHSLPPGEDGRVEPYVDFAEFYRLWSVDHGEQSVVTAP
GST-POPX2
  binding: no binding
